# Experimental data taken from patent US4363922A, “Esters of antibiotic nodusmicin” (priority 1981, dated 1982).
# Test system: S.lutea UC-130
# Experiment: Dipped disc agar diffusion assay, S. lutea
# Design: key: NZ: no zone
# Conditions: 12.7 mm paper disc, 16 hours
row,Compound,Agar Diffusion 1 mg./ml. S.lutea UC-130 (inhibition zone)
1,"9,11-O-Dipicolinoyl-",NZ

# Test system: S.aureus UC 80
# Experiment: Dipped disc agar diffusion assay, S. aureus
# Design: key: NZ: no zone
# Conditions: 12.7 mm paper disc, 16 hours
row,Compound,Agar Diffusion 1 mg./ml. S.aureus UC 80 (inhibition zone)
1,"9,11-O-Dipicolinoyl-",NZ
2,"COC1CC2C=CC3C4OC2(C(C)=CC(C)C(C(C)O)OC1=O)C3C(OC(=O)c1ccco1)C(C)C4O (stereo not drawn) [U-60,905, 11-O--Furoyl-]",NZ
3,"COC1CC2C=CC3C4OC2(C(C)=CC(C)C(C(C)O)OC1=O)C3C(O)C(C)C4OC(=O)c1cccn1C (stereo not drawn) [U-60,988, 9-O--N--Methylpyrrole-2-carbonyl-]",NZ
4,"COC1CC2C=CC3C4OC2(C(C)=CC(C)C(C(C)O)OC1=O)C3C(O)C(C)C4O (stereo not drawn) [U-59,761, nodusmicin]",NZ
5,"COC1CC2C=CC3C4OC2(C(C)=CC(C)C(C(C)O)OC1=O)C3C(O)C(C)C4OC(=O)c1cnccn1 (stereo not drawn) [U-61,264, 9-O--Pyrrazine-2-carbonyl]",NZ
6,"COC1CC2C=CC3C4OC2(C(C)=CC(C)C(C(C)O)OC1=O)C3C(O)C(C)C4OC(=O)c1ccc([N+](=O)[O-])[nH]1 (stereo not drawn) [U-61,427, 9-O--5-Nitropyrrole-2-carbonyl-]",NZ
7,"COC1CC2C=CC3C4OC2(C(C)=CC(C)C(C(C)O)OC1=O)C3C(O)C(C)C4OC(=O)c1cc2ccccc2[nH]1 (stereo not drawn) [U-61,273, 9-O--Indole-2-carbonyl-]",NZ
8,"COC1CC2C=CC3C4OC2(C(C)=CC(C)C(C(C)O)OC1=O)C3C(O)C(C)C4OC(=O)c1ccc([N+](=O)[O-])o1 (stereo not drawn) [U-60,990, 9-O--5-Nitrofuroyl]",NZ
9,"COC1CC2C=CC3C4OC2(C(C)=CC(C)C(C(C)O)OC1=O)C3C(O)C(C)C4OC(=O)c1ccncc1 (stereo not drawn) [U-60,925, 9-O--Isonicotinoyl]",NZ
10,"COC1CC2C=CC3C4OC2(C(C)=CC(C)C(C(C)O)OC1=O)C3C(O)C(C)C4OC(=O)c1ccccn1 (stereo not drawn) [U-60,909, 9-O--Picolinoyl-]",NZ
11,"COC1CC2C=CC3C4OC2(C(C)=CC(C)C(C(C)O)OC1=O)C3C(O)C(C)C4OC(=O)c1cccnc1 (stereo not drawn) [U-60,906, 9-O--Nicotinoyl-]",NZ
